Experimental findings from ChEMBL document CHEMBL1811835, “Intramolecular ion-pair prodrugs of zanamivir and guanidino-oseltamivir” (Bioorg Med Chem, 2011) are described below.

In the assay the test system is Influenza A virus. The experiment in a line: microbe, parasite or virus in culture. The following applies: A/WSN/1933 (H1N1), MDCK, 48 h.
`CCOC(=O)C1=C[C@H](NC(=N)N)[C@@H](NC(C)=O)[C@H]([C@H](O)[C@H](O)CO)O1` returned a 50% effective concentration (EC50) of 0.106 µM.

As for `CC(=O)N[C@H]1[C@H]([C@H](O)[C@H](O)CO)OC(C(=O)OCCCOC(=O)c2ccc3ccccc3c2O)=C[C@@H]1NC(=N)N`, the EC50 amounted to 0.048 µM.

In the case of `CCOC(=O)C1=C[C@@H](OC(CC)CC)[C@H](NC(C)=O)[C@@H](NC(=N)N)C1`, the response was half-maximal at 1.17 µM (EC50).

The compound `CCC(CC)O[C@@H]1C=C(C(=O)OCCCOC(=O)c2ccc3ccccc3c2O)C[C@H](NC(=N)N)[C@H]1NC(C)=O` showed an EC50 of 1.47 µM.

The compound `CCC(CC)O[C@@H]1C=C(C(=O)O)C[C@H](NC(=N)N)[C@H]1NC(C)=O` had a concentration for a half-maximal effect (EC50) of 0.008 µM.

`O=C(O)c1ccc2ccccc2c1O` [CARBOXYNAPHTHOL]: the 50% effective concentration (EC50) is more than 1000 µM.

For the compound `CC(=O)N[C@H]1[C@H]([C@H](O)[C@H](O)CO)OC(C(=O)O)=C[C@@H]1NC(=N)N` [ZANAMIVIR], the EC50 worked out at 0.034 µM.
